# Measurements from article PMC4336329 (PLoS ONE, 2015).
# Screen size: about 310,000 compounds; about 2,200 (0.71%) showed an effect of 50% or more. Effects have a minus sign here. Some of the results follow.
# Target: human ether-à-go-go-related gene (hERG) potassium channel (human, UniProt Q12809)
# Assay: primary screen, population patch clamp on CHO cells stably expressing hERG
# Chain of human ether-à-go-go-related gene (hERG) potassium channel (Q12809 whole entry, looked up): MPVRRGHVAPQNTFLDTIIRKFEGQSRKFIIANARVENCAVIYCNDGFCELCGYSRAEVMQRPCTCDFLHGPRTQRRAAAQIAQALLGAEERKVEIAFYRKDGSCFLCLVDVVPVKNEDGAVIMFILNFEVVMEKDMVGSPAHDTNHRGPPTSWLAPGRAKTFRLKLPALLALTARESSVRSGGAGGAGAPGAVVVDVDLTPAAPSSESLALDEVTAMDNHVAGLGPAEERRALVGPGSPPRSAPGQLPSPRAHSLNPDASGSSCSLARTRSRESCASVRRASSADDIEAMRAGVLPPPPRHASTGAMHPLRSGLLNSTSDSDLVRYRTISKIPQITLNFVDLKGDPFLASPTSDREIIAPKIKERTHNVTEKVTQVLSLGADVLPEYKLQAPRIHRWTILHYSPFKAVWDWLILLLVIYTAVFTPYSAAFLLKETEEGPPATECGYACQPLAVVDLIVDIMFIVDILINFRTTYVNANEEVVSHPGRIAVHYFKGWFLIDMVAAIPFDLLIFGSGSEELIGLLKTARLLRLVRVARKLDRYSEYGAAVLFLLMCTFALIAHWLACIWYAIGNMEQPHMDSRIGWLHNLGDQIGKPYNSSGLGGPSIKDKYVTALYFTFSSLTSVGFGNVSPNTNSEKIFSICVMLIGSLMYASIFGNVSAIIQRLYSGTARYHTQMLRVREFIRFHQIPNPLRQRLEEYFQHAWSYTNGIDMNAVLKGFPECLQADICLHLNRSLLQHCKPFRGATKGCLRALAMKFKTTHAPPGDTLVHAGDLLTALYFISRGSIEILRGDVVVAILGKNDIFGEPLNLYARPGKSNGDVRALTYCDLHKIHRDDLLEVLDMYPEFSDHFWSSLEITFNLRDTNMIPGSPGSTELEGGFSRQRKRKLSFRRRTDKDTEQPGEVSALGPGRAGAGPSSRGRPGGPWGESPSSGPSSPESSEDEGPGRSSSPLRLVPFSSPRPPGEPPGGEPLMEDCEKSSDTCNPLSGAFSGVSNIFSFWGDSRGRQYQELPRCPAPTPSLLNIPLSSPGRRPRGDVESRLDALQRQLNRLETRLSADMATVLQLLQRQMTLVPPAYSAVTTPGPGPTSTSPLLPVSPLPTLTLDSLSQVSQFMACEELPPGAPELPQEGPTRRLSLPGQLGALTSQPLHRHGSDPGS
row,SMILES,"hERG current change (%, negative = inhibition) at 1uM [%]"
1,CCOC(=O)C(CCCCOc1ccc([N+](=O)[O-])cc1)C(=O)OCC,-28.2
2,Cc1cc(C)n(-c2ncnc3sc(C)c(C)c23)n1,4.05
3,O=C(Nc1ccc(F)cc1)NC1(C(=O)NCc2ccc3c(c2)OCO3)CCCCC1,11.5
4,Cc1c(NC(=O)c2cccc(F)c2)c(=O)n(-c2ccccc2)n1C,18
5,CC1(c2nnc(-c3ccc(F)cc3)o2)CC(c2cccc(Cl)c2)=NO1 (centres unmarked),0.846
6,Nc1c(C(=O)NCCCc2ccccc2)c2nc3ccccc3nc2n1Cc1cccs1,6.78
7,COc1cc(NC(=O)c2ccccc2Cl)c(OC)cc1NC(=O)CN1CCCCC1,0.137
8,O=C1NCCN(Cc2ccc(Cl)c(F)c2)C1CC(=O)N1CCCCO1 (centres unmarked),11.1
9,CCC(=O)N1c2ccc(S(=O)(=O)CCC(=O)NC3CCCC3)cc2CC1C (centres unmarked),0.06
10,COc1ccc(NC(=O)C2CCN(c3nc(-c4ccc(OC)cc4)no3)CC2)cc1,14.8
11,CN(C(=O)c1ccc(NC(=O)Cc2cccc(NC(=O)C3CCCN(C(=O)C4CC4)C3)c2)cc1)C1CCCC1 (centres unmarked),9.29
12,O=C1Nc2ccccc2CCC1Sc1nnc(-c2ccc(Cl)cc2)s1 (centres unmarked),4.32
13,COC(=O)/C=C1/N/C(=N\c2nc(C)cc(C)n2)N(c2cccc(C)c2)C1=O,1.56
14,COC(=O)Nc1nnc(COc2cccc(C)c2)s1,14.6
15,COc1ccccc1N1CCN(CC(O)COc2ccc(C)cc2C)CC1.Cl (centres unmarked),-31
16,CCOC(=O)Cn1c(-c2cccnc2Cl)nc2cc(Cl)c(Cl)cc21,0.794
17,Cc1ccc(NC(=S)N(N)CCO)cc1,8.27
18,Cc1cccc(OCCCN2C(=O)C(=O)c3cc(C)ccc32)c1,-0.187
19,Cc1cccc(C)c1NC(=O)CSCCO,12.7

row,SMILES,"hERG current change (%, negative = inhibition) at 1uM [%]"
1,CC(C)c1ccc(C(C)NC(=S)NC2CCCCC2)cc1 (centres unmarked),8.95
2,CCN1CCN(S(=O)(=O)c2ccc(OC)cc2)CC1,9.32
3,N#Cc1cnc2c(-c3ccccc3)c(-c3ccccc3)nn2c1N,0.284
4,CCOc1ccc(/C=N/NC(=O)C2CCCC2)c(OCC)c1,-2.55
5,Cc1ccc(CC(=O)Nc2ccccc2-c2ccccc2)cc1C,9.09
6,CCC1(c2ccccc2)NC(=O)N(CC(=O)NCc2ccccc2OC)C1=O (centres unmarked),14.4
7,O=C(NC1CCCCC1)C(c1ccccc1)N(C(=O)c1cccs1)c1ccc2c(c1)OCO2 (centres unmarked),3.71
8,COc1ccccc1Oc1ccc2c(c1)C(=O)N(c1cccc(O)c1)C2=O,17.7
9,CC(C)c1ccc2c(c1)c(SC(C)(C)C)c(CC(C)(C)C(=O)[O-])n2Cc1ccc(Cl)cc1.[Na+],10.1
10,O=C(c1ccc(Cl)cc1)N1CCCC(c2ccccc2)=N1,5.75
11,CCN(CC)S(=O)(=O)c1cccc(-c2nnc(SCC#N)n2Cc2ccccc2)c1,-0.562
12,CCCCOc1ccccc1C1NC(=O)NC(C)=C1C(=O)OCCOC (centres unmarked),3.22
13,O=C1c2ccccc2C(Nc2ccc(-c3nc4ccccc4[nH]3)cc2)N1Cc1ccco1 (centres unmarked),12
14,Cc1ccc(S(=O)(=O)Nc2cc(C(=O)NCCN(C)C)ccc2N2CCCC2)cc1,3.78
15,CC(C)Cc1nnc(NC(=O)CCC(=O)NC2CCCCCCC2)s1,12.3
16,Cn1c[n+](C)cc1/C=N/O.[I-],15.2
17,CCCc1c(O)nc(SCC(=O)N2CCCCC2)[nH]c1=O,21.8
18,CCOC(=O)C(C)N1CC(=O)N(c2ccccc2)C1=O (centres unmarked),12.9
19,Cc1ccc(/C=N/NC(=O)CSc2nc3ccccc3c(=O)n2-c2ccccc2)s1,-2.86

row,SMILES,"hERG current change (%, negative = inhibition) at 1uM [%]"
1,COc1ccc(-c2cc(-c3ccc(N)cc3)nc(N)c2C#N)cc1OC,5.88
2,CCOC(=O)N1CCN(C(=O)CSCC(=O)Nc2nc(-c3ccc(OC)cc3)cs2)CC1,-8.03
3,Brc1cc(Cc2nnc(-c3ccccc3)o2)c(Br)s1,16.5
4,CCOC(=O)c1c(C)[nH]c(C(=O)OC(C)C(=O)NC2CCCCC2C)c1C (centres unmarked),5.79
5,COc1ccc(OC)c(S(=O)(=O)NCC(c2ccc3c(c2)OCO3)N2CCOCC2)c1 (centres unmarked),-0.985
6,COc1ccc(/C=N/NC(=O)CCn2cnc(-c3ccccc3)c2-c2ccccc2)cc1,-7.9
7,Cc1ccc(S(=O)(=O)N2CCN(C(=O)CN3C(=O)NC4(CCOc5ccccc54)C3=O)CC2)cc1 (centres unmarked),8.13
8,CCn1c(SCC(=O)NCC2CCCO2)nnc1-c1ccc(Cl)cc1 (centres unmarked),3.09
9,O=C(c1ccc(COCC(F)(F)F)cc1)N1CCN(c2ccccn2)CC1,9.82
10,CC(C)CNC(=O)c1ccccc1NC(=O)c1ccc(CN2CCOCC2)cc1,1.96
11,CCOC(=O)C(NC(C)=O)(Nc1ccc(S(=O)(=O)Nc2ncccn2)cc1)C(F)(F)F (centres unmarked),18.1
12,COc1ccc(CC(=O)Nc2sc3c(c2C(N)=O)CCCC3)cc1,-0.701
13,Cc1c(O)c2c3c(cccc3c1O)C(=O)N(c1ccccc1)C2=O,3.61
14,CCCSc1ncccc1C(=O)O,12.4
15,Cn1c(O)c(/C=C2\C=Nc3ccccc32)sc1=Nc1ccc(C(=O)O)cc1,-6.16
16,CC1=NN(C(=S)Nc2ccccc2)C(c2ccccc2)C1 (centres unmarked),7.61
17,Cc1cccc(NS(=O)(=O)c2ccc(C3CCCCC3)cc2)c1,16.6
18,CCOC(=O)C1(Cc2cccc(OC)c2)CCN(CC=C(C)C)CC1,12.5
